As usually defined, the Kd is the concentration at which binding is half-saturated. A high value points to weaker binding. The term koff denotes the rate constant with which the complex falls apart. Lower therefore signals slow dissociation. The term kon denotes the second-order rate constant of association. Read a low kon as slower complex formation.

The target in assay [1] is T1, IL-2Rα in a human Fc fusion protein format (ACROBiosystems) (human, UniProt P01589 22-213, limits assumed).
T1 construct: Bought reagent; also called CD25; not shown: human Fc (captured by anti-human IgG Fc)
T1 sequence (looked up): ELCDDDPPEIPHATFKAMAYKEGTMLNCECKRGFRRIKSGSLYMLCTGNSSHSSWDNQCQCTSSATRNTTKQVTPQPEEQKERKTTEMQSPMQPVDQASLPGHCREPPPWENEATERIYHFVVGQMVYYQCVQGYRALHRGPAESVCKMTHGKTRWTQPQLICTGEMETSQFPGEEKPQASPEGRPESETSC
Kind of assay: Octet QKe (BLI), IL-2Rα-Fc on anti-human IgG Fc (AHC) sensors, 1:1 fit; analyte series 100, 50, 25, 12.5 (unit inferred). From the text:
(§1) IL-2Rα or IL-2Rβ in a human Fc fusion protein format (ACROBiosystems) were captured on anti-human IgG Fc capture (AHC) sensors. […] Dissociation was detected following transfer of sensors into wells containing buffer alone. Data were collected and analyzed by the Octet User Software. For analysis of the kinetics constants, a 1:1 curve fitting model was used.

The target of assay [2] is T1, IL-2Rα in a human Fc fusion protein …. Kind of assay: BLI (Octet QKe), IL-2Rα-Fc captured on AHC sensors, 1:1 fit.
Source text: as §1

For assay [3] the target is unchanged. The assay can be described thus: Octet QKe (BLI), IL-2Rα-Fc on anti-human IgG Fc (AHC) sensors, 1:1 fit; analyte series 400, 200, 100 (unit inferred).
Source text: as §1

B1: ACT5200, IL-2 mutein Y31C (ligand)
chain: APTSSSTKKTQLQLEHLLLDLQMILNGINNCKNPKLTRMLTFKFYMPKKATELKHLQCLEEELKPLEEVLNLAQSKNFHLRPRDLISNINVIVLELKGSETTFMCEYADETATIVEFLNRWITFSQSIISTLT
notes: Not PEGylated; rhIL-2 (C125S) background; not shown: His-Tag
In assay [1], B1 displayed a Kd of 31.2 nM, a koff of 0.0125 s⁻¹ and an on-rate constant (kon) of 400000 M⁻¹ s⁻¹.

B2: ACT5201, IL-2 mutein Y31C (PEG20K) (ligand)
chain: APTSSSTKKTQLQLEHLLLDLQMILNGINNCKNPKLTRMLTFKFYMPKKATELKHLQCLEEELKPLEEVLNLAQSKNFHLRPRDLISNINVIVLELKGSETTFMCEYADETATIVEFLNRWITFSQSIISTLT
modifications: maleimide-PEG 20K on Cys 31
notes: not shown: His-Tag
In assay [2], B2 registered an equilibrium dissociation constant (Kd) of 24.7 nM, a dissociation rate constant (koff) of 0.0152 s⁻¹ and an on-rate (kon) of 615000 M⁻¹ s⁻¹. Further, in assay [3], the Kd is 79.6 nM, the off-rate (koff) was determined as 0.0441 s⁻¹ and the association rate constant (kon) is 554000 M⁻¹ s⁻¹.

B3: IL-2 mutein N29C - PEG20 (ligand)
chain: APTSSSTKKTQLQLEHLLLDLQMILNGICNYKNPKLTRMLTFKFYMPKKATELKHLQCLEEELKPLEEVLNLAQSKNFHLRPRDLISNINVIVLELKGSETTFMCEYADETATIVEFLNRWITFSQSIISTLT
modifications: maleimide-PEG 20K on Cys 29
notes: not shown: His-Tag
Regarding B3, in assay [2], binding was characterised by a dissociation constant (Kd) of 188 nM, the koff turned out to be 0.101 s⁻¹ and the kon was found to be 538000 M⁻¹ s⁻¹.

The record behind these values is patent US20240010697A1 (CYTIMM THERAPEUTICS, published 2024).
